Assay results: article PMC1762419
These are yes or no findings as the source states them, for the method shown. In cells and extracts the contact can be indirect. Some binding calls cover weakened binding; strength is not graded here. Blank lines part the entries; values can stand above or below the binder they belong to.

By UniProt entry, the sequences of proteins in these tests, tags left out.
UniProt P04406: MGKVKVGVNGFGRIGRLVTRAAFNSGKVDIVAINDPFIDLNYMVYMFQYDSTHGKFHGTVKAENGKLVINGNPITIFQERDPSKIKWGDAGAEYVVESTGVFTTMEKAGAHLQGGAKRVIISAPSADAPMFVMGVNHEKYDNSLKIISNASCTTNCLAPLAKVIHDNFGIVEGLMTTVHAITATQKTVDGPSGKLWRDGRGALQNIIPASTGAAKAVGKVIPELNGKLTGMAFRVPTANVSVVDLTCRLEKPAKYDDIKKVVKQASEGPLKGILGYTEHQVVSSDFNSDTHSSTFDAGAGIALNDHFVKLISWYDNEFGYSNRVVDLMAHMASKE

Tests used:
[1] = biological target: GAPDH (endogenous, HeLa) (human (endogenous in HeLa)) (UniProt P04406); assay: co-IP; HeLa (cell line 9-8) whole cell extract, immunoprecipitation with anti-Maf1 or anti-GAPDH antibodies; immunoblot with anti-RPC1, anti-Brf1, anti-Maf1
[2] = biological target: T1, endogenous Maf1 (human (endogenous in HeLa)) (UniProt Q9H063); assay: as above
T1 sequence: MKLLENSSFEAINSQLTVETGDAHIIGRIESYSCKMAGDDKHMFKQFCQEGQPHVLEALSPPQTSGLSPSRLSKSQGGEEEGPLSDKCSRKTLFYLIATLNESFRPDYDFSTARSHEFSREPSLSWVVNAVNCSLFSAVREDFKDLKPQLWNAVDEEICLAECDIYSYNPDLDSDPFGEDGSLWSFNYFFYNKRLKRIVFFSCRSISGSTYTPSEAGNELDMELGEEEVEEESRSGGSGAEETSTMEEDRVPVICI

binding [1]: no binding
B1: RPC1, the largest subunit of pol III (endogenous, HeLa) (protein, UniProt O14802 1-1390)
chain: MVKEQFRETDVAKKISHICFGMKSPEEMRQQAHIQVVSKNLYSQDNQHAPLLYGVLDHRMGTSEKDRPCETCGKNLADCLGHYGYIDLELPCFHVGYFRAVIGILQMICKTCCHIMLSQEEKKQFLDYLKRPGLTYLQKRGLKKKISDKCRKKNICHHCGAFNGTVKKCGLLKIIHEKYKTNKKVVDPIVSNFLQSFETAIEHNKEVEPLLGRAQENLNPLVVLNLFKRIPAEDVPLLLMNPEAGKPSDLILTRLLVPPLCIRPSVVSDLKSGTNEDDLTMKLTEIIFLNDVIKKHRISGAKTQMIMEDWDFLQLQCALYINSELSGIPLNMAPKKWTRGFVQRLKGKQGRFRGNLSGKRVDFSGRTVISPDPNLRIDEVAVPVHVAKILTFPEKVNKANINFLRKLVQNGPEVHPGANFIQQRHTQMKRFLKYGNREKMAQELKYGDIVERHLIDGDVVLFNRQPSLHKLSIMAHLARVKPHRTFRFNECVCTPYNADFDGDEMNLHLPQTEEAKAEALVLMGTKANLVTPRNGEPLIAAIQDFLTGAYLLTLKDTFFDRAKACQIIASILVGKDEKIKVRLPPPTILKPVTLWTGKQIFSVILRPSDDNPVRANLRTKGKQYCGKGEDLCANDSYVTIQNSELMSGSMDKGTLGSGSKNNIFYILLRDWGQNEAADAMSRLARLAPVYLSNRGFSIGIGDVTPGQGLLKAKYELLNAGYKKCDEYIEALNTGKLQQQPGCTAEETLEALILKELSVIRDHAGSACLRELDKSNSPLTMALCGSKGSFINISQMIACVGQQAISGSRVPDGFENRSLPHFEKHSKLPAAKGFVANSFYSGLTPTEFFFHTMAGREGLVDTAVKTAETGYMQRRLVKSLEDLCSQYDLTVRSSTGDIIQFIYGGDGLDPAAMEGKDEPLEFKRVLDNIKAVFPCPSEPALSKNELILTTESIMKKSEFLCCQDSFLQEIKKFIKGVSEKIKKTRDKYGINDNGTTEPRVLYQLDRITPTQVEKFLETCRDKYMRAQMEPGSAVGALCAQSIGEPGTQMTLKTFHFAGVASMNITLGVPRIKEIINASKAISTPIITAQLDKDDDADYARLVKGRIEKTLLGEISEYIEEVFLPDDCFILVKLSLERIRLLRLEVNAETVRYSICTSKLRVKPGDVAVHGEAVVCVTPRENSKSSMYYVLQFLKEDLPKVVVQGIPEVSRAVIHIDEQSGKEKYKLLVEGDNLRAVMATHGVKGTRTTSNNTYEVEKTLGIEAARTTIINEIQYTMVNHGMSIDRRHVMLLSDLMTYKGEVLGITRFGLAKMKESVLMLASFEKTADHLFDAAYFGQKDSVCGVSECIIMGIPMNIGTGLFKLLHKADRDPNPPKRPLIFDTNEFHIPLVT

binding [2]: binds
B2: endogenous human Brf1 (protein, UniProt Q92994 1-677)
chain: MTGRVCRGCGGTDIELDAARGDAVCTACGSVLEDNIIVSEVQFVESSGGGSSAVGQFVSLDGAGKTPTLGGGFHVNLGKESRAQTLQNGRRHIHHLGNQLQLNQHCLDTAFNFFKMAVSRHLTRGRKMAHVIAACLYLVCRTEGTPHMLLDLSDLLQVNVYVLGKTFLLLARELCINAPAIDPCLYIPRFAHLLEFGEKNHEVSMTALRLLQRMKRDWMHTGRRPSGLCGAALLVAARMHDFRRTVKEVISVVKVCESTLRKRLTEFEDTPTSQLTIDEFMKIDLEEECDPPSYTAGQRKLRMKQLEQVLSKKLEEVEGEISSYQDAIEIELENSRPKAKGGLASLAKDGSTEDTASSLCGEEDTEDEELEAAASHLNKDLYRELLGGAPGSSEAAGSPEWGGRPPALGSLLDPLPTAASLGISDSIRECISSQSSDPKDASGDGELDLSGIDDLEIDRYILNESEARVKAELWMRENAEYLREQREKEARIAKEKELGIYKEHKPKKSCKRREPIQASTAREAIEKMLEQKKISSKINYSVLRGLSSAGGGSPHREDAQPEHSASARKLSRRRTPASRSGADPVTSVGKRLRPLVSTQPAKKVATGEALLPSSPTLGAEPARPQAVLVESGPVSYHADEEADEEEPDEEDGEPCVSALQMMGSNDYGCDGDEDDGY
